Reference: PMC12136788
Some of the results follow.

T1: UNK ZnF1-3 (human, UniProt Q9C0B0 31-174)
T1 sequence: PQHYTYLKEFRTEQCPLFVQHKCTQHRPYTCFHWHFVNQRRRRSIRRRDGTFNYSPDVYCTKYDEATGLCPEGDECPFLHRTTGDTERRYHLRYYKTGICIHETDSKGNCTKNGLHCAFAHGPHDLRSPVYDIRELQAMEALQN

B1: chr1:58468927:58468928:-_ENSMUSG00000026034_ENSMUST00000148330|mus_mus|mus_mus_mus_hu_False|48_68 (ssRNA)
RNA: GGGAGUUCUACAGUCCGACGAUCAAUUACUGAAAAAGAUGUUCAUUACCUUAGCUAUGUACUUAAUUUAAUAAAGCACCCAAACAACAUAAAAUGUGCAAUAUAAAAAUGUUAAGAAUUUACAAAGCUGUACAAAAUAACUUACAACAGAGGAUUGAGCAUCA
B2: chr2:168010559:168010560:-_ENSMUSG00000051149_ENSMUST00000088001|perfect_dup|FALSE|FALSE (ssRNA)
RNA: GGGAGUUCUACAGUCCGACGAUCUUCCAAAGUCUUUUUAUCUGCAUUGAAGGUACAGUAAGGGCAGUUAAGGAGAAUCCUAUUUUCAAAGUCUUCACUAUGGACAUUCCGGAAAUGACUUUUGUAGGCAGAGAAGAAUUUUGACAACAGAGGAUUGAGCAUCA
B3: 52290995_52293528_1129_CDS_ENSG00000078618_ENST00000352171|human|control|control (ssRNA)
RNA: GGGAGUUCUACAGUCCGACGAUCAAGGCUUCCAAACAACAUUUCCUUUCUGUUUGCAUCAGAAGGCCUUGCAAGUUGAUAUUCACUAUCAACAGCUUCAACUUCACGGUCAAUUGCAUCUCUGAUCAUUAGUGGGUGGAUGAACAACAGAGGAUUGAGCAUCA
B4: chr16:44739181:44739182:-_ENSMUSG00000022668_ENSMUST00000162512|mus_mus|FALSE|FALSE (ssRNA)
RNA: GGGAGUUCUACAGUCCGACGAUCUCUCACUUCAUGCACUUGUAUAUGCUCUGGACUUGUCAGUUAAAAUAGAAAAGCCAGCUAGCAUCUGUCCUAAUGACCAAUAUGAUUUAAUUCAUUAUUUGUAACCCUUACCCCCAGCGCCAACAGAGGAUUGAGCAUCA
B5: chrX:147082666:147082667:-_ENSMUSG00000025272_ENSMUST00000087258|mus_hu|FALSE|FALSE (ssRNA)
RNA: GGGAGUUCUACAGUCCGACGAUCGGAAGAGCCACCAAAGGAGACACUGGUGCUAAGUGUGCCUCCAAAGCCAGUGCUGGUGCAGGGAGAGCCACCGAAGCAGAUACUGGUACUGAGUGUACCACCAAAGCUACCACUGGAGCUCAACAGAGGAUUGAGCAUCA
B6: chr2:10942682:10942683:-_ENSG00000143870_ENST00000272227|hu_mus|FALSE|FALSE (ssRNA)
RNA: GGGAGUUCUACAGUCCGACGAUCUGGUGUUAACCUCUGGCAGUGACCACACCAUGGUGCAUAAAAUUCUACAAGCCACAGGCCGUCACUCUGAAUAACUUCUCUGUUGAAAUUUGAUGGCGUCAACUCGAUGACAUCAUCACUCAACAGAGGAUUGAGCAUCA

molecular target: T1, UNK ZnF1-3; experiment: nsRBNS (natural sequence RNA bind-n-seq); RBNS binding buffer (assumed for nsRBNS): 25 mM Tris pH 7.5, 150 mM KCl, 3 mM MgCl2, 0.01% Triton X-100, 500 ug/ml BSA, 20 U/ml SUPERase-In, 4 C; UNK is unkempt and MSI1 is Musashi-1; names of the RNAs are library labels; protein concentration not given here; high values mean tight binding

Binder	binding signal [enrichment R]
B1	1.74
B2	1.15
B3	1.24
B4	2.09
B5	1.37
B6	0.629
